Several values for one entry are separate records, joined by “and”; a condition that tells them apart may be missing. Identical values can stand only once. Like-named read-outs stand apart in the source and are kept apart here. Further values from the same series stand in other lists.

This assay has as its system mtrC-lacZ expression. It counts as cell-based, Neisseria gonorrhoeae. Conditions: for β-galactosidase activity, Miller units (single replicate): ΔmtrR + mtrR WT in trans, first data set (c15-c36); for Miller units: mtrC-lacZ.
[1] abbreviates: ΔmtrR + mtrR D171A in trans, 6.25 µM hormone, single replicate.
[2] abbreviates: ΔmtrR + mtrR D171A in trans, 12.5 µM hormone, single replicate.
The mark [3] stands for this setting: ΔmtrR + mtrR D171A in trans, 25 µM hormone, single replicate.
Setting [4] is: ΔmtrR + mtrR D171A in trans, 50 µM hormone, single replicate.

`CC(=O)[C@H]1CC[C@H]2[C@@H]3CCC4=CC(=O)CC[C@]4(C)[C@H]3CC[C@]12C` [Progesterone, progesterone]: the “β-galactosidase activity, Miller units (single replicate)” value (shortened to “β-galactosidase activity, Miller units”) is 103 Miller units (6.25 µM); 130 Miller units (12.5 µM); 126 Miller units and 121 Miller units (25 µM); 150 Miller units and 160 Miller units (50 µM).
On to `C[C@]12CC[C@@H]3c4ccc(O)cc4CC[C@H]3[C@@H]1CC[C@@H]2O` [β-Estradiol, β-estradiol], for which the Miller units under setting [1] is 147 Miller units and 135 Miller units; the Miller units under setting [2] is 195 Miller units and 119 Miller units; the Miller units under setting [3] is 132 Miller units and 171 Miller units; the Miller units under setting [4] was 188 Miller units and 124 Miller units and 146 Miller units. Further, the “β-galactosidase activity, Miller units” value was 110 Miller units (6.25 µM); 110 Miller units and 145 Miller units (12.5 µM); 131 Miller units and 160 Miller units (25 µM); 138 Miller units and 154 Miller units (50 µM).
With `C[C@]12CC[C@H]3[C@@H](CCC4=CC(=O)CC[C@@]43C)[C@@H]1CC[C@@H]2O` [Testosterone, testosterone], the Miller units runs as follows: (WT, 6.25 µM hormone, single replicate (plate data)) 164 Miller units and 134 Miller units and 127 Miller units and 139 Miller units; (WT, 12.5 µM hormone, single replicate (plate data)) 186 Miller units and 164 Miller units and 155 Miller units and 161 Miller units; (WT, 25 µM hormone, single replicate (plate data)) 189 Miller units and 186 Miller units and 165 Miller units and 170 Miller units; (WT, 50 µM hormone, single replicate (plate data)) 222 Miller units and 215 Miller units and 166 Miller units and 177 Miller units; under setting [1], 167 Miller units and 161 Miller units and 191 Miller units; under setting [2], 177 Miller units and 161 Miller units and 186 Miller units. Besides, the Miller units is, setting by setting: under setting [3], 179 Miller units and 168 Miller units and 147 Miller units; under setting [4], 158 Miller units and 156 Miller units; (ΔmtrR, 6.25 µM hormone, single replicate (plate data)) 276 Miller units and 252 Miller units and 246 Miller units and 285 Miller units; (ΔmtrR, 12.5 µM hormone, single replicate (plate data)) 296 Miller units and 248 Miller units and 237 Miller units and 196 Miller units; (ΔmtrR, 25 µM hormone, single replicate (plate data)) 284 Miller units and 276 Miller units and 289 Miller units and 254 Miller units; (ΔmtrR, 50 µM hormone, single replicate (plate data)) 310 Miller units and 287 Miller units and 255 Miller units and 237 Miller units. The “β-galactosidase activity, Miller units” value is 148 Miller units (1 µM); 185 Miller units (10 µM); 246 Miller units (50 µM); 230 Miller units and 308 Miller units (100 µM).

The values above are taken from PMC10850145, “Hormonal steroids induce multidrug resistance and stress response genes in Neisseria gonorrhoeae by binding to MtrR” (Nature Communications, 2024).
